Measured values published in a collection of fitness landscapes (doi:10.1038/s41467-024-54723-y).
In all, about 18,000 sequences were measured (“TetR repression strength (sort-seq, GFP reporter)”: median about 0.23, highest 2% from about 0.68 on). The list shows a part of the results.

Target: TetR (class B, Tn10) (UniProt P04483)
Assay: TetR repression strength (sort-seq, GFP reporter) (relative to tetO2 = 1); higher = stronger repression
Conditions: E. coli
How it was run: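 Repression strength is the top bin index plus one minus the read-weighted mean bin, relative to the unaltered operator's value. A low-copy library in E. coli SIG10-MAX randomized eight operator positions between a constitutive promoter and sfGFP, with TetR expressed constitutively; cells grew 5 h at 37 °C in LB with 50 µg/mL chloramphenicol and 10^6 were FACS-sorted into 13 bins that were each Illumina-sequenced. Three independent transformations were averaged, keeping only members with ≥30 reads in all replicates and CV ≤0.5.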

Sequence of UniProt P04483 (P04483 whole entry): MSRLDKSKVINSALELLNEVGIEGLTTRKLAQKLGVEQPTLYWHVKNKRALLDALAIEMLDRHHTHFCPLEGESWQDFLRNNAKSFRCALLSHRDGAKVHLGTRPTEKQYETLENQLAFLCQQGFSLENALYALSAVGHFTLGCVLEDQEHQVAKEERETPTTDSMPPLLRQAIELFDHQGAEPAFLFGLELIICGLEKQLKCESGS

In order of falling TetR repression strength:
1. TCCCTACAAGTGGAAGAGA  1.21
2. TCCCCAGGAGTGGGCGAGA  0.894
3. TCCCCTTAAGTAGTGGAGA  0.604
4. TCCCTACAAGTGATCGAGA  0.593
5. TCCCAAGGAGTTGACGAGA  0.592
6. TCCCGCTTAGTGATCGAGA  0.575
7. TCCCAGAAAGTTAATGAGA  0.563
8. TCCCCATGAGTTCCGGAGA  0.553
9. TCCCGCACAGTCCTGGAGA  0.539
10. TCCCCCTAAGTTGGAGAGA  0.518
11. TCCCACCAAGTGACTGAGA  0.499
12. TCCCTTAGAGTTGGAGAGA  0.484
13. TCCCGGGGAGTCTCAGAGA  0.479
14. TCCCTTGAAGTTCTGGAGA  0.478
15. TCCCATTAAGTGAGAGAGA  0.478
16. TCCCTGTAAGTGTACGAGA  0.466
17. TCCCGCTCAGTCTCTGAGA  0.447
18. TCCCAATGAGTGAATGAGA  0.446
19. TCCCCCAGAGTCCGCGAGA  0.434
20. TCCCAAAGAGTCCTCGAGA  0.426
21. TCCCGTCGAGTGGTAGAGA  0.426
22. TCCCCAATAGTATTTGAGA  0.42
23. TCCCTATCAGTAACCGAGA  0.42
24. TCCCGATAAGTGTTAGAGA  0.417
25. TCCCCCCTAGTACACGAGA  0.41
26. TCCCACAAAGTGAAAGAGA  0.407
27. TCCCAGCGAGTTGCAGAGA  0.403
28. TCCCGGCGAGTGAGTGAGA  0.401
29. TCCCCAGGAGTTTATGAGA  0.401
30. TCCCGTAGAGTGCAAGAGA  0.396
31. TCCCAGTGAGTGGCAGAGA  0.392
32. TCCCGTCTAGTTCGAGAGA  0.378
33. TCCCACTCAGTGGCCGAGA  0.378
34. TCCCGTCGAGTGATTGAGA  0.372
35. TCCCTTTTAGTTGTCGAGA  0.369
36. TCCCGAAGAGTCCCTGAGA  0.366
37. TCCCAACGAGTCGCTGAGA  0.364
38. TCCCAAAAAGTGGCAGAGA  0.351
39. TCCCTATTAGTGCCTGAGA  0.35
40. TCCCGGCTAGTCAGGGAGA  0.349
41. TCCCTATCAGTACGTGAGA  0.349
42. TCCCCTAGAGTTAGAGAGA  0.349
43. TCCCAAAGAGTAGAGGAGA  0.346
44. TCCCGTGGAGTGAAGGAGA  0.344
45. TCCCCTTTAGTTCGGGAGA  0.339
46. TCCCTTGTAGTTTATGAGA  0.339
47. TCCCGCGGAGTCGCTGAGA  0.337
48. TCCCTGCCAGTACCGGAGA  0.333
49. TCCCACACAGTTGCAGAGA  0.333
50. TCCCATACAGTTCTAGAGA  0.331
51. TCCCGCGTAGTAGTCGAGA  0.33
52. TCCCGTGTAGTACAAGAGA  0.326
53. TCCCTCACAGTGCTTGAGA  0.321
54. TCCCGTAAAGTGGGTGAGA  0.315
55. TCCCGTGAAGTGGCGGAGA  0.314
56. TCCCGACTAGTATATGAGA  0.311
57. TCCCCCATAGTGTTTGAGA  0.311
58. TCCCGACGAGTCCGAGAGA  0.309
59. TCCCGATGAGTGTCCGAGA  0.304
60. TCCCTCACAGTGCATGAGA  0.304
61. TCCCGGCGAGTAGGGGAGA  0.303
62. TCCCGGGGAGTGGCTGAGA  0.301
63. TCCCAAGGAGTTTTTGAGA  0.299
64. TCCCAGAGAGTGGTGGAGA  0.298
65. TCCCTAGTAGTGTTAGAGA  0.297
66. TCCCAGTCAGTCAGTGAGA  0.297
67. TCCCGTGCAGTGTACGAGA  0.297
68. TCCCCGCGAGTAGTGGAGA  0.296
69. TCCCAGGGAGTGTTTGAGA  0.294
70. TCCCAAGGAGTGTATGAGA  0.293
71. TCCCTAGGAGTGAGAGAGA  0.293
72. TCCCGTGAAGTATCCGAGA  0.289
73. TCCCGGCAAGTGATTGAGA  0.286
74. TCCCTATTAGTTCTCGAGA  0.285
75. TCCCGTTGAGTTCAAGAGA  0.284
76. TCCCTAGGAGTCTGGGAGA  0.28
77. TCCCCAAGAGTTGTTGAGA  0.278
78. TCCCTCGAAGTCGTCGAGA  0.277
79. TCCCTCAAAGTGGATGAGA  0.277
80. TCCCGCGGAGTGACTGAGA  0.275
81. TCCCTGGGAGTCGGGGAGA  0.273
82. TCCCCTAGAGTCGATGAGA  0.271
83. TCCCTGCCAGTCGGGGAGA  0.268
84. TCCCGTCAAGTGTGGGAGA  0.267
85. TCCCGCTGAGTCTAGGAGA  0.266
86. TCCCCAAAAGTGTAAGAGA  0.264
87. TCCCTTCTAGTTACGGAGA  0.26
88. TCCCATGTAGTTCTAGAGA  0.259
89. TCCCGGCCAGTGCAGGAGA  0.258
90. TCCCCGAAAGTGGGGGAGA  0.257
91. TCCCAAACAGTTGGCGAGA  0.256
92. TCCCTAACAGTTTCTGAGA  0.253
93. TCCCCACGAGTACACGAGA  0.253
94. TCCCCGTGAGTGTGGGAGA  0.252
95. TCCCGAATAGTATAGGAGA  0.251
96. TCCCGAGGAGTTCTCGAGA  0.251
97. TCCCGACGAGTAGAGGAGA  0.249
98. TCCCGTACAGTTGGAGAGA  0.248
99. TCCCCGGTAGTCGGGGAGA  0.247
100. TCCCTCGGAGTCACAGAGA  0.247
101. TCCCGCGCAGTACACGAGA  0.242
102. TCCCCGTGAGTCAACGAGA  0.241
103. TCCCCTGGAGTGGGTGAGA  0.241
104. TCCCACACAGTACGCGAGA  0.238
105. TCCCTCGGAGTTTGGGAGA  0.238
106. TCCCGCTAAGTTCAGGAGA  0.238
107. TCCCTAATAGTATTCGAGA  0.236
108. TCCCGTCTAGTACGCGAGA  0.233
109. TCCCCTCCAGTGTGCGAGA  0.233
110. TCCCGAGAAGTGCGGGAGA  0.231
111. TCCCACTAAGTGCATGAGA  0.23
112. TCCCTGGTAGTCTTTGAGA  0.23
113. TCCCAGAGAGTGGGAGAGA  0.229
114. TCCCAGGTAGTCATTGAGA  0.226
115. TCCCAGAAAGTCATTGAGA  0.224
116. TCCCGATGAGTATGGGAGA  0.224
117. TCCCCTGGAGTCGGGGAGA  0.222
118. TCCCACGCAGTCGGTGAGA  0.221
119. TCCCTCACAGTGGAGGAGA  0.221
120. TCCCGATAAGTGGCAGAGA  0.218
121. TCCCCGGTAGTGCGAGAGA  0.218
122. TCCCAATTAGTAAGCGAGA  0.218
123. TCCCAGCAAGTCAGGGAGA  0.217
124. TCCCGTTTAGTTACAGAGA  0.213
125. TCCCGCCCAGTGGCTGAGA  0.211
126. TCCCGCTTAGTCGCAGAGA  0.21
127. TCCCCGTGAGTTAGGGAGA  0.21
128. TCCCCGTTAGTTGGCGAGA  0.208
129. TCCCTGCTAGTATCCGAGA  0.207
130. TCCCGCGCAGTCACGGAGA  0.206
131. TCCCGCTGAGTACAGGAGA  0.205
132. TCCCTATGAGTAGTAGAGA  0.204
133. TCCCGAGCAGTCGTCGAGA  0.202
134. TCCCGTACAGTTGATGAGA  0.2
135. TCCCATACAGTCCCGGAGA  0.199
136. TCCCCGGCAGTCACTGAGA  0.198
137. TCCCTGACAGTTTAGGAGA  0.196
138. TCCCGGGGAGTGTACGAGA  0.194
139. TCCCGCAGAGTGTCCGAGA  0.193
140. TCCCATGAAGTCATAGAGA  0.193
141. TCCCACGTAGTCTGCGAGA  0.192
142. TCCCAGGAAGTAGGCGAGA  0.191
143. TCCCATTTAGTAAATGAGA  0.19
144. TCCCGCACAGTGTAGGAGA  0.188
145. TCCCCAAGAGTAACCGAGA  0.183
146. TCCCGTGCAGTTGCTGAGA  0.181
147. TCCCAAAAAGTGGGTGAGA  0.178
148. TCCCGGTGAGTGCGCGAGA  0.177
149. TCCCGACAAGTAGCGGAGA  0.175
150. TCCCGTGTAGTAGGGGAGA  0.173
151. TCCCTGAGAGTTGTTGAGA  0.169
152. TCCCGGAGAGTTCACGAGA  0.166
153. TCCCCTATAGTGGGCGAGA  0.165
154. TCCCTGTGAGTGTATGAGA  0.165
155. TCCCTGGCAGTGACTGAGA  0.165
156. TCCCTGAGAGTCGTTGAGA  0.162
157. TCCCAATCAGTCCTGGAGA  0.16
158. TCCCTGTTAGTAAGAGAGA  0.158
159. TCCCGGAGAGTATGGGAGA  0.157
160. TCCCGTGGAGTTATAGAGA  0.155
161. TCCCGAAAAGTCGATGAGA  0.152
162. TCCCTTTAAGTACTAGAGA  0.152
163. TCCCGCGAAGTAAGCGAGA  0.151
164. TCCCGTACAGTTAGGGAGA  0.149
165. TCCCAGCGAGTTGAAGAGA  0.148
166. TCCCATAGAGTATTCGAGA  0.145
167. TCCCATTCAGTAATGGAGA  0.145
168. TCCCCGGAAGTCAGGGAGA  0.141
169. TCCCGGGAAGTTGGGGAGA  0.141
170. TCCCGAGCAGTATCGGAGA  0.138
171. TCCCAAGCAGTGAGGGAGA  0.134
172. TCCCTGGGAGTCCCGGAGA  0.128
173. TCCCTCTTAGTCGGAGAGA  0.127
174. TCCCGGCAAGTATTAGAGA  0.124
175. TCCCAGTTAGTATAGGAGA  0.122
176. TCCCAACCAGTAATCGAGA  0.12
177. TCCCTGTCAGTACAGGAGA  0.118
178. TCCCTCTTAGTGCTTGAGA  0.116
179. TCCCCGGGAGTCGTCGAGA  0.116
180. TCCCGGGCAGTGGAGGAGA  0.112
181. TCCCGAATAGTTGTGGAGA  0.107
182. TCCCAGCAAGTTACTGAGA  0.104
183. TCCCGGATAGTTCTGGAGA  0.104
184. TCCCTGTGAGTTTTTGAGA  0.1
185. TCCCGCACAGTAGCGGAGA  0.0968
186. TCCCATCGAGTGTAGGAGA  0.0954
187. TCCCTAAGAGTGCAGGAGA  0.0907
188. TCCCGTTAAGTACGTGAGA  0.085
189. TCCCGTTAAGTGAGAGAGA  0.0731
190. TCCCGTGGAGTAGCCGAGA  0.0713
191. TCCCCGGGAGTAGCGGAGA  0.0558
192. TCCCTGTGAGTGGTTGAGA  0.0512
193. TCCCGCCTAGTTGCGGAGA  0.0507
194. TCCCACGTAGTGATGGAGA  0.0469
195. TCCCGTATAGTAGGAGAGA  0.0443
196. TCCCGTAAAGTGGGCGAGA  0.0438
197. TCCCATTTAGTGGATGAGA  0.0386
198. TCCCGTCAAGTTTGTGAGA  0.0335
199. TCCCTAATAGTTGGAGAGA  0.023
200. TCCCAATGAGTTGCAGAGA  0.0192
201. TCCCGGTTAGTTAGAGAGA  0.0159
202. TCCCTTCTAGTTCGAGAGA  0.01
203. TCCCGGATAGTCTCTGAGA  0.00964
204. TCCCTTAAAGTCATGGAGA  0
